# From publication PMC6919601, “Identification of Plasmodium dipeptidyl aminopeptidase allosteric inhibitors by high throughput screening” (PLoS ONE, 2019)
# Values joined by “and” are separate entries in the source; they are usually repeats but may differ in a detail not shown here. Equal entries are not always repeated. The campaign covered roughly 110,000 compounds. About 230 (0.21%) showed an effect of 50% or more. Some of the results follow.
# Biological target: DPAP1 (Plasmodium falciparum, UniProt Q8IIJ9)
# Sequence (Q8IIJ9 whole entry, looked up): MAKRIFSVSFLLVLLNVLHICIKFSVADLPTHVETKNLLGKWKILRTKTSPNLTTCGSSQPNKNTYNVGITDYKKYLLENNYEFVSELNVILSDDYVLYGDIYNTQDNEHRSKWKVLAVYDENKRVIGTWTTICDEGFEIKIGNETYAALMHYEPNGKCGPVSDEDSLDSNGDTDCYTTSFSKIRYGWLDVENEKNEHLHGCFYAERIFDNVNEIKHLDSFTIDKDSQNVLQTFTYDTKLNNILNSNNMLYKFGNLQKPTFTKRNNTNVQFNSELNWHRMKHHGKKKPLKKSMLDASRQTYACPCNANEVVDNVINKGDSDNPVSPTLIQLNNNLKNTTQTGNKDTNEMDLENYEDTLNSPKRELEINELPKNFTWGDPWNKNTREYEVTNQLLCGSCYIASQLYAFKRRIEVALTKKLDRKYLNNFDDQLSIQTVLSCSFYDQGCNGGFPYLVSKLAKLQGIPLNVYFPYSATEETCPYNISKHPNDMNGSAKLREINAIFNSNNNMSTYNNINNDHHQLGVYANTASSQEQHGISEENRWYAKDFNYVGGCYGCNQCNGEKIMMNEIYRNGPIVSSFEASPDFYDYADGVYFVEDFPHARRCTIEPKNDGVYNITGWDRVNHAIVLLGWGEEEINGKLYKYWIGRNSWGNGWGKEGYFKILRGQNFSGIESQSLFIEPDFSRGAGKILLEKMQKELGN
# Assay: primary screen, percent inhibition; read by cleavage of a fluorogenic dipeptide substrate; higher = more effect of the substance
# Set-up: species or system P. falciparum D10 trophozoite lysates; single well
# 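Further: 30 min substrate incubation versus DMSO and 10 µM JCP410 controls.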
row,Structure (SMILES),% Inhibition @ 10 uM
1,CCS(=O)(=O)C1=NSC2=NC(=O)/C(=C\c3ccc(O)c(O)c3)C(=N)N21,-5.27%
2,CCCN(CCC)CC/N=c1\c(O)c(O)\c1=N/C1CCN(C(=O)OCC)CC1,-1.44%
3,Cc1ccc(S(=O)(=O)NC2=NCN(c3ccc(Cl)cc3)CN2)cc1,-1.38%
4,CC1(C)CC(=O)c2cnc(-c3ccncc3)nc2C1,-4.49%
5,CC(NC(=O)c1coc2nc3ccccc3nc12)c1ccccc1 (stereo not drawn),-2.72%
6,CCOc1ccc(C(C)NC(=O)c2ccccc2Cl)cc1OCC (stereo not drawn),5.39%
7,COc1cccc(C(=O)Nc2ccc(C(=O)NCC3CCCO3)cc2)c1 (stereo not drawn),4.11%
8,Cc1cc(Cl)c(C(=O)NC(C)C2CC2)cc1Cl (stereo not drawn),2.59%
9,CC(C)C(NC(=O)c1ccc(CN2CCOCC2)cc1)C(C)C,-6.36%
10,Cn1ncc(Br)c1C(=O)N1CCCCC1,0.774%
11,Cc1cccc(NC(=O)C2CCCN(c3ncnc4onc(C)c34)C2)n1 (stereo not drawn),4.67%
12,O=S(=O)(Nc1nc2ccccc2nc1NCCc1ccccc1)c1ccccc1,-8.29%
13,COc1ccc(S(=O)(=O)N(C)CC(=O)N2CCC(C(N)=O)CC2)cc1,-8.92%
14,CC(=O)c1ccc2sc3ccc(C(C)=O)cc3c2c1,-6.71%
15,OC(c1ccccc1)(c1ccccc1)C1CCCN1Cc1ccccc1 (stereo not drawn),-4.75%
16,OC(c1ccncc1)C(O)c1ccncc1 (stereo not drawn),-0.415%
17,O=c1oc2c(Br)cc(Br)cc2cc1-c1nc(-c2ccccc2)cs1,0.98%
18,CCN(Cc1ccccc1)C(=O)CSc1nc2cn(CC)nc2c(=O)n1Cc1ccc(C)cc1,-8.26%
19,CCOc1ccccc1NC(=O)c1ccc(OC)cc1OC,-4.43%
20,CCN(C/C=C/c1ccccc1)CCN(C)C,-4.04%
21,COc1c(Cl)cc(Cl)cc1/C=C1\N=C(c2ccccc2)OC1=O,-6.74%
22,Cc1ccc(C(=O)Nc2sc3c(c2C(=O)N(C)C)CCC(C)C3)cc1 (stereo not drawn),-0.82%
23,N#C/C(=C\Nc1cccc(F)c1)c1nc(-c2ccccc2)cs1,-3.49%
24,CN(C)CCN(C)Cc1cccc(F)c1,-1.62%
25,CCN(CCN(C)C)Cc1ccccc1F,-0.0494%
26,N#Cc1ccc(-c2cccs2)nc1O,-3.32%

row,Structure (SMILES),% Inhibition @ 10 uM
1,CCCCNC(=O)c1ccc(CSCc2ccc(Cl)cc2)o1,5.23%
2,COCc1cc(C)nc2sc3c(=O)n(CCc4ccccc4)nnc3c12,-0.808%
3,CCCn1c(N2CCCCCC2)nc2c1c(=O)[nH]c(=O)n2C,2.91%
4,CCOC(=O)c1[nH]c(C)c(C)c1O,3.3%
5,CC1C2CC(C(CN(C)C)/C2=N/O)C1(C)C (stereo not drawn),0.937% and -5.62%
6,COc1ccccc1C(=O)n1nc(-c2ccc(Cl)cc2)nc1NCc1ccco1,-2.91%
7,O=C(C1CCCN1C(=O)OCc1ccccc1)N1CCCCCC1 (stereo not drawn),3.86%
8,N#Cc1nc(/C=C/c2cccs2)oc1N1CCCC1,-3.71%
9,CC1CCN(Cn2c(=S)oc3ccccc32)CC1,12.8%
10,COc1ccc(/C=C(\C)C(=O)c2c(C)cc(C)nc2O)cc1,2.91%
11,CCOc1ccc2nc(N(CCN(C)C)C(=O)Cc3ccccc3)sc2c1,-5.01%
12,C=CCNC(=O)c1oc2ccc(S(=O)(=O)N(CC)CC)cc2c1C,8.2%
13,Cc1ccc(S(=O)(=O)c2ccc(C)c(S(N)(=O)=O)c2)cc1S(N)(=O)=O,-3.03%
14,CCC[C@@H](/C=C/S(=O)(=O)c1ccccc1)NC(=O)CCc1c(F)cccc1F,2.87%
15,COc1ccccc1N(CC(=O)Nc1ccccc1C(F)(F)F)S(=O)(=O)c1ccccc1,2.65%
16,CC1CCCC(NC(=O)CC/N=c2/c(N3CCCC3)c(O)c2=O)C1C (stereo not drawn),-3.74%
17,O=C(NCCc1csc2nc(-c3ccccc3)nn12)c1ccccc1Br,-1.49%
18,CCC1CCCN1Cn1cnc2c3cc(Cl)ccc3nc-2c1O (stereo not drawn),-1.74%
19,CN(C(=O)C1c2ccccc2C(=O)N2CCc3ccccc3C12)C1CCCCC1 (stereo not drawn),-1.29%
20,Cc1ccc(N2C(=O)NC(=O)/C(=C/Nc3cccc(Cl)c3)C2=O)cc1,-2.8%
21,c1ccc(-c2oc3ncn4ncnc4c3c2-c2ccccc2)cc1,-0.0678%
22,COCCCNC(=O)c1cccs1,-3.04%
23,CN1CCCN(Cc2c[nH]c3ccccc23)CC1,-3.56%
24,CCCN(CCC)C(=O)C1CCC(C)(C(=O)O)C1(C)C (stereo not drawn),6.86%
25,NC(=O)C1CCN(Cc2cccc(C(F)(F)F)c2)CC1,3.48%
